Test results from the supplement of paper PMC3334620.
In all, about 33,000 sequences were measured (“E-score (-0.5 to 0.5)”: median about -0.011, highest 2% from about 0.28 on). This is one part of the list.

Biological target: T1, Gcr1 (UniProt P07261)
T1 sequence: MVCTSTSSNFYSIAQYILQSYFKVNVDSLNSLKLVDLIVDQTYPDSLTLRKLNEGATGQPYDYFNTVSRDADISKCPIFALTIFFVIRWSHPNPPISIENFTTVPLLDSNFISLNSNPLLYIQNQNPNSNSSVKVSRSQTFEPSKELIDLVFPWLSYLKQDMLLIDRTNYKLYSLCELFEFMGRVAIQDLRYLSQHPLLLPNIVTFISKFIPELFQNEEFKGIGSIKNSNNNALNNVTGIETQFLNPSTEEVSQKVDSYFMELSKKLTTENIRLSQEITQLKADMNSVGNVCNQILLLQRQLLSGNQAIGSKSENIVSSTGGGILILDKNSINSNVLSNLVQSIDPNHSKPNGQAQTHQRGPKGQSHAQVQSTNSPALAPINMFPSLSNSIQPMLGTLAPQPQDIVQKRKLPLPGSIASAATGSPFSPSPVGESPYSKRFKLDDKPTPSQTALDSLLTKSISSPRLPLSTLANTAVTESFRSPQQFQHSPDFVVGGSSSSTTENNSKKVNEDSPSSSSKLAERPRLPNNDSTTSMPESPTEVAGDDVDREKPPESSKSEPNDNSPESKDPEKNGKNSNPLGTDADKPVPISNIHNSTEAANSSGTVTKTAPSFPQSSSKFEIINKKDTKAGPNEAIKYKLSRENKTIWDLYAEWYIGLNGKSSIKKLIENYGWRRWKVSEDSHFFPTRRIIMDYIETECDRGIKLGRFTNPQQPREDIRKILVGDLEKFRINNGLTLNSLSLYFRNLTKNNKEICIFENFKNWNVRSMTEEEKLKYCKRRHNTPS
Assay: PBM E-score (8-mer binding enrichment) (E-score (-0.5 to 0.5)); higher = stronger / more preferred TF binding; most listed sequences are background and not binding sites
Details: protein concentration: 100 nM; construct: GST-full length
Method in brief: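 E-scores (a modified Wilcoxon-Mann-Whitney statistic) were assigned by the Universal PBM Analysis Suite to every ungapped eight-base word pooled with its reverse complement. The input came from universal all-10-mer Agilent arrays made double-stranded by primer extension and probed with GST-tagged yeast transcription factors at about 100-200 nM. Fluorescent anti-GST detected bound protein, and masliner normalised the scans.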

Sequence	PBM E-score
ACGAAACC	-0.0164
AAGACTGT	-0.262
AAGTTGAG	0.0769
GGATTCGA	-0.0132
AACTCGTC	-0.0513
ACTTCTCG	-0.0046
CACCCTCA	-0.098
ATAAAGTA	0.121
AAAAGCTA	-0.0743
TCCTTAAA	0.188
CTGCTCCC	-0.0369
AGTACCCA	0.0854
CGGGGCTA	-0.145
AAGTCTTG	-0.201
CTTTACTC	-0.104
ACGCCCGG	0.00623
GGGTTTTA	0.0307
AGCCCCGG	-0.0603
GGCCTCAA	-0.064
CCCGCGGC	-0.0884
AAATCACG	0.0802
CCCTCAGC	-0.0815
ATGTTACG	-0.0472
ACTCGCAA	-0.0245
CAGCCTCC	0.0111

Sequence	PBM E-score
GGGCGCGA	0.187
CTCCAAGC	-0.0749
AGAGGAAG	0.385
CATACATG	0.138
AATCTCGG	0.0556
ATCCGCGC	-0.17
TCCGCAGA	0.0495
AAACCTGG	-0.0106
CACGAGCA	-0.175
GATCAACA	-0.0228
CGTGAGAC	0.0202
GACTTACC	-0.13
CTCAGCGC	-0.0893
AACAATTG	-0.0456
GGGGGGTA	-0.184
ACTCAAAC	-0.0659
CAGATGAC	-0.0757
ACAACAGT	0.0426
AACGGCAT	0.0261
ACGACCCC	-0.137
CTACTAGC	0.0837
GGCCCCCA	0.231
CCAACACG	-0.0387
GCCTGTCC	-0.0681
CGGACGAG	-0.00195

Sequence	PBM E-score
GTACCGCA	0.0162
AATGAATA	-0.111
ACTAACCT	-0.152
CTATACCC	0.026
CTTACCAA	-0.046
TGTCACAA	0.105
ACGGAAAG	0.00962
GACGCTAC	0.249
GATGCTGA	0.312
ATCCCGGG	0.0771
CCGAGTAG	-0.0161
CAGCTGAA	-0.00224
AGGAATTG	0.00679
GGCCGCGA	-0.233
GTGATATA	-0.2
CACCTAGC	-0.182
ACTGAGTC	-0.0322
ATGAAGCC	0.145
CGCACAAC	-0.138
TCTTCACA	0.078
ATCTCCGA	-0.169
AACTGGAT	0.278
AATCTATC	0.0866
ACTGAGGC	-0.216
GAAGCGTA	0.106

Sequence	PBM E-score
CGGTTATA	-0.0132
CTGCCCGC	-0.127
GCACGGGA	0.0483
GACCTTTA	0.0125
ATCCATCA	-0.0203
GGTCAGAC	-0.147
GCCTCTAA	0.265
CGATAACC	-0.00227
CCTTTCCA	-0.17
CTTATCCC	0.0307
CGTCGGGC	-0.21
GAACTAAC	-0.15
CAGTGCCC	-0.148
AATACTCC	-0.0742
GGCCATCA	-0.148
ACCTTCAT	-0.16
ACGCTAAA	-0.118
GATCTGAA	-0.0028
CAGTCGAA	0.0113
AAGTTATT	0.11
ATTTTGTC	0.118
GGCGAGAC	-0.277
ATAGTTTC	-0.102
ACTAGATA	0.111
CAATGTGG	0.083

Sequence	PBM E-score
CAGTACGC	0.0102
CTGACTCA	-0.106
CTGAAGCC	-0.0704
AATGGAAT	0.301
CCTTTACG	-0.00275
GATGTCTA	0.0157
CCTAGGAA	-0.0238
ATAAAGTG	0.114
AATTGGAT	0.0824
CAACTCCA	-0.0963
AACATCGC	-0.031
GCTTTGGA	0.0838
ACGTCGCG	0.16
GTCATAAA	-0.00707
GACGATCA	-0.159
CAAGTAGG	-0.0463
GACCTCTA	-0.149
AAACACGC	0.191
AATAACTA	0.102
CGTCGAGA	-0.163
CGGAGTAA	-0.0671
GACGTGGC	-0.143
AGAAATAT	0.0324
CGGGACTC	0.183
ATCCCTGG	-0.104

Sequence	PBM E-score
ATTAAAAT	0.241
TAATAAGA	0.115
CTTATTCA	-0.211
TCCCACAA	0.193
CGGTAGTC	-0.169
GCAATGAC	-0.226
AAAACATT	0.127
CCATTAAG	0.128
TGTGCGAA	-0.121
AGCATCGA	0.0648
AACATCTT	0.109
AGGATAAT	0.0746
ACCAGGCG	0.0399
GAAGTCTA	-0.0939
ATGCAAGA	-0.00923
GGGTAAGA	0.0267
GCCTACTA	0.00583
ATTAGTTG	0.188
CTAATACC	-0.152
ACTAGTCC	-0.0815
AACTCGCG	-0.148
ATAATAAA	0.101
CGCTTTGA	-0.112
AGGGGACC	-0.0565
TACCATCA	-0.12

Sequence	PBM E-score
ACTCGGTC	-0.233
TAGACTCA	-0.0352
ACACCAGC	-0.126
ACGCTTAA	0.0493
GCGCAAGC	-0.171
ACCGGTAT	0.278
GTCCCCGA	0.0179
CGACTCAA	-0.0878
CGACGTAA	0.0282
ACTGCTAT	-0.225
CACAGCAA	0.141
AGACATCG	-0.237
ATCCTGAA	0.31
ATGCCAAA	0.0279
CGATTACA	-0.0405
CGGTAAAC	0.00368
AATGGCGC	0.253
AAGGTGGA	-0.0451
GCAACGCA	-0.083
CTGGGTGA	-0.044
GGCGTGTA	0.108
ATCGTAAA	0.0285
GCAGCGCC	0.28
ACGTAGCT	0.282
AAGATAAC	-0.182

Sequence	PBM E-score
TGCCCTAA	-0.097
ACTTTTTA	0.174
CGGTGTCC	-0.135
AAGAGGAC	-0.0984
CACATCAC	0.0275
CTAAGTAC	-0.0637
AAAAAGAC	0.123
AGCTGATA	0.0575
TCAGACGA	-0.0961
ATCCTGTC	0.266
AACATAGT	0.00773
ATAGCTCA	-0.211
CACTAAGA	0.243
CGGGCCAA	0.00404
GCATAAAC	0.149
ATGGTCCC	0.112
CGGTACTC	-0.166
ATATTTAA	0.111
GACATTGC	-0.328
CACCTTTC	-0.0358
AGAGCAAT	-0.123
AAGAGCGG	0.0775
TCACCCGA	0.0808
ACCTTCGG	-0.0792
CAATGTCC	-0.0164

Sequence	PBM E-score
CCATATTC	0.00882
ATCAGCCC	-0.136
GGGCCACC	-0.0937
GCCTGAAC	-0.161
CCCTACGC	-0.279
CCCCACCC	0.194
CTTCAGAA	0.0728
GCTATAAC	0.0513
AGGAAGGC	0.224
AAAGGAAA	0.0832
ATGTAACA	0.0166
CTCGGCGA	0.00588
GTGTTTCA	0.138
GGGATTGA	0.0727
CGGGGGGC	-0.139
CACGTGTC	-0.103
GGGCCCAA	0.151
ACTCCAAC	-0.0952
GATCCTCC	-0.163
ACTCTAAT	-0.029
GCAGCAAA	0.11
AGTTTTGA	0.117
AAATCTAA	0.143
AGAGGCCT	-0.0444
ATCGATGG	-0.104

Sequence	PBM E-score
AAGGTTGC	0.261
GGCTCGAC	-0.209
GCCTCACC	-0.0647
CGCTTGGA	-0.0704
CAGTATGC	-0.0127
TATCTCGA	-0.115
AGTGTAAA	-0.00592
GGTATGCA	0.0172
CGGTATAC	0.0322
GTGCCAGA	0.121
GTTACCAA	0.0112
ACAGAGTC	-0.146
GAGTTTCC	0.0419
GTTGCTCA	0.204
CGGGACAG	0.0286
AGCGCCAA	0.124
AAAGAGCA	-0.0643
ACTCACCT	-0.102
GAACTATA	-0.0227
ACTCTAGG	-0.0525
GTACGAAA	0.0588
AACTCATA	-0.0113
AGTTATAT	0.0556
ACGCGCGA	-0.146
CGGACAGC	-0.212

Sequence	PBM E-score
CCGAGAGA	0.153
CGAGTCTA	-0.0668
TCAAATCA	-0.0648
CAAGGGGA	-0.00263
AAGCGCCC	0.0219
AAAGGGTA	-0.151
AACTGATG	-0.0241
CACGGATG	-0.216
CCATCACA	-0.166
AGGGCCTG	-0.252
GAACATTA	0.0391
ATTGCCTG	-0.0693
AGTATTAG	0.0751
AAATCGGC	0.186
AGCAACCA	0.349
CGGTGACC	0.0679
CTGCCCGA	0.0379
AAAAACCT	0.0232
AACACCAA	-0.0252
AGTACAAG	0.154
ATACAACG	0.0368
ATCATTTC	0.0852
ACCGAGCG	-0.00066
ACGTACGT	-0.194
ACTACTCA	0.0669

Sequence	PBM E-score
CGGCCTAG	-0.0643
CTAAAACC	0.223
AAAGGCAC	0.182
ACAGCACG	-0.122
CGCGTCGA	-0.215
CGTTCCAC	0.0103
AGGCCTGG	-0.184
ACACAGCG	-0.0347
TAGTCCAA	-0.0805
GTGATGGA	0.0992
TCCGTGCA	-0.0337
ACATACGA	0.0571
ACATCGTA	0.148
AGTACTGG	0.0646
TCGTTCCA	-0.00624
ATGTTTGC	-0.235
ATTAAAGA	0.178
CAAGCCAA	-0.133
GAGTAGCA	-0.0796
ATAGACTC	-0.134
CAACCTTA	0.00398
CTTAATTA	0.00266
CAGACTAC	-0.0609
TAAGTACA	-0.00586
GGGTCCAA	0.176

Sequence	PBM E-score
GGAATAAA	-0.184
CGGACCTA	-0.0122
ATCATAAA	-0.0195
TTCCGAAA	0.255
CCAAGTTA	0.169
ATTTAATC	0.208
CAGGAATA	0.134
GGTCCGTA	-0.0855
ACACTCCC	-0.194
CATTTTCA	0.155
GCTTGGGA	0.0628
ACATCCGG	0.0345
CGGACGCC	0.416
ATCAGCAG	-0.0649
CACTGGAG	-0.0119
AGGAGCCT	0.109
ACAGCGTC	-0.0458
GGATGGAA	0.0371
AATGGCCT	-0.284
CGTCTGAA	-0.0244
GCGGTGCA	-0.242
ATAGCCAA	-0.101
AATGAGTA	0.143
ATTAAATG	0.0781
CTGTACCC	0.0612

Sequence	PBM E-score
GGTAAAGA	0.0149
CTGGCTTA	-0.159
GGTTCGCA	-0.0255
AATTTTAA	0.0234
AACTGGGT	0.2
ACGATTTG	-0.0181
CTATTAGC	0.0236
AAATGCCC	-0.175
ACCTTCCG	-0.0645
CGGGCCGA	-0.283
GGTTGTAA	-0.138
TTCAAGAA	0.0602
CCGAATGC	-0.105
TCCTAGCA	0.175
TCGAGAAA	0.0343
AGGGAAGC	0.281
AGTCAGGA	0.0997
GAAGGCCC	0.112
CCTTCCCG	-0.248
